13 compounds from the antibiotic and cytotoxicity screens of Wong et al. (2023) can be followed below.

Structures are written as SMILES. The list shows a part of the results.

One experiment has as its system HSkMC. Briefly: cytotoxicity call (relative viability < 0.9). To be noted: 10 µM.
The subject of another experiment is HepG2. The experiment is described as follows: cytotoxicity call (relative viability < 0.9). The settings on record: 10 µM.
For another experiment, the system named is S. aureus RN4220. Briefly: growth inhibition call (relative growth <= 0.2). To be noted: 50 µM.

For `C[C@@H]1CN([C@H](C)CO)C(=O)c2cc(NC(=O)CCCN(C)C)ccc2O[C@@H]1CN(C)C(=O)Nc1ccccc1`, the cytotoxicity call with HSkMC and in the experiment on HepG2 was “inactive” in each case. In addition, the growth inhibition call in the experiment with S. aureus RN4220 is “inactive”.
Take `C[C@H]1CCCCO[C@@H](CN(C)C(=O)c2ccncc2)[C@@H](C)CN([C@@H](C)CO)C(=O)c2cc(NC(=O)C3CCCCC3)ccc2O1`: the cytotoxicity call in the experiment with HSkMC and in the experiment with HepG2 was “inactive” throughout. The growth inhibition call with S. aureus RN4220 was “inactive”.
Take `CO[C@H]1CN(C)C(=O)c2ccc(NC(=O)Nc3cccc(Cl)c3)cc2OC[C@H](C)N(C(=O)Nc2c(C)noc2C)C[C@@H]1C`: the cytotoxicity call in the experiment on HSkMC and with HepG2 was “inactive” each time. Moreover, in the experiment with S. aureus RN4220, the growth inhibition call was “inactive”.
`C[C@H]1CN([C@@H](C)CO)S(=O)(=O)c2ccc(C#CC3(O)CCCC3)cc2O[C@@H]1CN(C)C(=O)c1ccncc1`: the cytotoxicity call in the experiment with HSkMC and in the experiment on HepG2 was “inactive” throughout. In addition, the growth inhibition call in the experiment with S. aureus RN4220 was “inactive”.
As to `Cc1noc(C)c1S(=O)(=O)Nc1ccc2c(c1)C(=O)N([C@H](C)CO)C[C@H](C)[C@H](CN(C)C(=O)NC1CCCCC1)O2`, the cytotoxicity call in the experiment with HSkMC and in the experiment on HepG2 was “inactive” throughout. In addition, the growth inhibition call in the experiment on S. aureus RN4220 was “inactive”.
Consider `COc1ccc(NC(=O)Nc2ccc3c(c2)CC(=O)N([C@H](C)CO)C[C@@H](C)[C@@H](CN(C)CC2CCCCC2)O3)cc1`, for which the cytotoxicity call in the experiment on HSkMC was “inactive”. The cytotoxicity call with HepG2 was “active”. For the same compound, the growth inhibition call with S. aureus RN4220 was “inactive”.
On to `C[C@H]1CN([C@@H](C)CO)S(=O)(=O)c2ccc(-c3ccncc3)cc2O[C@H]1CN(C)Cc1ccc(Oc2ccccc2)cc1`, for which the cytotoxicity call in the experiment with HSkMC and in the experiment on HepG2 was “inactive” in each case. Also, the growth inhibition call in the experiment with S. aureus RN4220 is “inactive”.
As for `CCNC(=O)[C@@H]1CCCN1C(=O)[C@H](CCCN=C(N)N)NC(=O)[C@H](CC(C)C)NC(=O)[C@@H](Cc1c[nH]c2ccccc12)NC(=O)[C@H](Cc1ccc(O)cc1)NC(=O)[C@H](CO)NC(=O)[C@H](Cc1c[nH]c2ccccc12)NC(=O)[C@H](Cc1c[nH]cn1)NC(=O)[C@@H]1CCC(=O)N1`, the cytotoxicity call with HSkMC and with HepG2 was “inactive” each time. Besides, the growth inhibition call in the experiment with S. aureus RN4220 is “inactive”.
As for `C[C@@H]1CCCCO[C@H](CN(C)C(=O)Nc2ccc3c(c2)OCO3)[C@H](C)CN([C@H](C)CO)C(=O)c2cc(NC(=O)Cc3ccccc3)ccc2O1`, the cytotoxicity call in the experiment on HSkMC and in the experiment on HepG2 was “inactive” in each case. Further, in the experiment on S. aureus RN4220, the growth inhibition call is “inactive”.
Turning to `O=C1[O][Bi]([OH])[O]c2ccccc21`, the cytotoxicity call in the experiment on HSkMC and in the experiment on HepG2 was “inactive” each time. For the same compound, in the experiment with S. aureus RN4220, the growth inhibition call is “inactive”.
`NCc1ccccc1CC(=O)NC1C(=O)N2C(C(=O)O)=C(CSc3nnnn3CC(=O)O)CSC12` (centres undefined): the cytotoxicity call in the experiment on HSkMC (human skeletal muscle cells) and in the experiment with HepG2 was “inactive” in each case. In addition, the growth inhibition call with S. aureus RN4220 was “active”.
In the case of `C[C@@H]1CCCCO[C@@H](CN(C)C(=O)c2ccncc2)[C@@H](C)CN([C@@H](C)CO)C(=O)c2cc(NS(=O)(=O)c3cn(C)cn3)ccc2O1`, the cytotoxicity call in the experiment with HSkMC and in the experiment with HepG2 was “inactive” each time. In the experiment with S. aureus RN4220, the growth inhibition call was “inactive”.
Consider `C[C@@H]1CN([C@H](C)CO)S(=O)(=O)c2ccc(-c3cncnc3)cc2O[C@H]1CN(C)C(=O)NC1CCCC1`, for which the cytotoxicity call in the experiment with HSkMC and with HepG2 was “inactive” throughout. In addition, the growth inhibition call in the experiment on S. aureus RN4220 is “inactive”.
